# Measured values as given in PubChem BioAssay AID1963959 (Molecular Pharmacology Branch, DTP, NCI, 2024).
# Not every entry of the source has a single result; some have several. This list holds those alone. An entry can have further records. The records of an entry are repeats (runs, samples, wells, individuals or studies). Counts like (3×) count equal records among those shown.
# Test system: T-47D spheroids with HUVEC/MSC, viability
# Assay: Anticancer human tumor T-47D cell line growth inhibition [PI3K];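 further: spheroids exposed to agents for seven days before reading; percent of DMSO vehicle control luminescence so 100% = untreated growth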
# Conditions: stronger effect = lower value
# Excerpt: Combinatorial screen of targeted agents with the PI3K inhibitors inavolisib, alpelisib, duvelisib, and copanlisib in multi-cell type tumor spheroids
# A high-throughput screen of multi-cell type tumor spheroids was designed to identify active combinations of targeted small molecules and PI3K pathway inhibitors. Complex spheroids include a stromal component modeled by human endothelial cells (HUVEC) and fibroblasts modeled by human mesenchymal stem cells (MSCs). The concentration ranges selected for each drug and investigational agent were based upon clinically achievable concentrations if the clinical Cmax of the agent was known.
# Compounds. The drugs and investigational agents: inavolisib (NSC800729), alpelisib (NSC765974), duvelisib (NSC772469), copanlisib (NSC816437), ipatasertib (NSC767898), afuresertib (NSC778305), talazoparib (NSC767125), sapanisertib (NSC764658), selumetinib (NSC741078), tovorafenib (DAY101, NSC766906), vemurafenib (NSC761431), ravoxertinib (NSC781343), sotorasib (NSC818433), MRTX1133 (NSC 836407), abemaciclib (NSC 768073), palbociclib (NSC758247), venetoclax (NSC 766270), SY5609 (NSC837396), enzalutamide (NSC755605), and darolutamide (NSC825331), were obtained from the National Cancer Institute (NCI) Developmental Therapeutics Program Chemical Repository. The FDA-approved anticancer drug set is available from the NCI Developmental Therapeutics Program. […] The stock solutions were prepared in dimethyl sulfoxide (DMSO, Sigma-Aldrich, St. Louis, MO, cat. D2650) at 800-fold the tested concentration and stored at -70 degrees C prior to their use. All drugs and investigational agents were tested over a range starting from a high concentration at or near the clinical Cmax and decreasing in half-log increments. If the clinical Cmax for an agent had not been determined, the highest concentration tested was 10 microM.
# Cell Culture. All cells were maintained in an incubator at 37 degrees C and 5% CO2 with 95% humidity. The PDC lines were cultured according to standard operating procedures established by the NCI PDMR (https://pdmr.cancer.gov/sops/default.htm). All PDCs were thawed and cultured in Matrigel-coated flasks prepared with a working solution of 1X Ham's F-12 nutrient mix, without supplementation (Invitrogen, Waltham, MA, cat. 11765054), 100 U/mL penicillin-streptomycin (Invitrogen, cat. 15140122), and 2.5% Matrigel (Corning Inc., Corning, NY, cat. 354248) for the first three passages. The 354836-022-R-J1-PDC, 475296-252-R-J1-PDC, and 997726-040-R-J2-PDC lines were cultured in 6A media, which includes advanced DMEM/F-12 (Thermo Fisher Scientific, cat. 12634028), 10 mM HEPES (Thermo Fisher Scientific, cat. 15630080), 1X GlutaMAX supplement (Thermo Fisher Scientific, cat. 35050061), 0.1 mg/mL primocin (InvivoGen, San Diego, CA, cat. ant-pm-2), 10% defined fetal bovine serum, heat inactivated (HyClone Laboratories Inc., Logan, UT, cat. SH30070.03HI), 50% L-WRN conditioned media (ATCC, cat. CRL-3276), 1.25 mM N-Acetyl-L-cysteine (Sigma-Aldrich, cat. A9165), 10 mM nicotinamide (Sigma-Aldrich, cat. N0636), 1X B-27 supplement (Thermo Fisher Scientific, cat. 17504044), 1X N-2 supplement (Thermo Fisher Scientific, cat. 17502048), and 10 microM Y-27632 dihydrochloride (Tocris Bioscience, Bristol, United Kingdom, cat. 1254). The 624824-186-R-J2-PDC line was cultured in 6C/Colon 1B media, which includes all 6A media components plus 50 ng/mL human EGF recombinant protein (Thermo Fisher Scientific, cat. PHG0311). […]
compound,measurement,setting,value
CC(Nc1ncnc2nc[nH]c12)c1cc2cccc(Cl)c2c(=O)n1-c1ccccc1 (stereo not drawn),"viability, T/C",compound alone 0.1 µM,"82.5, 100, 112, 97, 91.5, 109, 105, 90%"
same,"viability, T/C",compound alone 1 µM,"99.6, 112, 92.4, 93.2, 100, 110, 117, 87.5%"
same,"viability, T/C",compound alone 3.16 µM,"96.8, 107, 84.1, 95.8, 120, 97.1, 105, 84.8%"
same,"viability, T/C",compound alone 10 µM,"97.4, 91.8 (2×), 90.4, 93, 104, 85.8, 77%"
CC1(C)CCC(CN2CCN(c3ccc(C(=O)NS(=O)(=O)c4ccc(NCC5CCOCC5)c([N+](=O)[O-])c4)c(Oc4cnc5[nH]ccc5c4)c3)CC2)=C(c2ccc(Cl)cc2)C1,"viability, T/C",compound alone 1 µM,"97.8, 90.9, 105, 75.7%"
same,"viability, T/C",compound alone 3.16 µM,"89.7, 71, 83.5, 108%"
same,"viability, T/C",compound alone 10 µM,"82, 57.1, 67.3, 97.1%"
Cn1ncnc1[C@H]1c2n[nH]c(=O)c3cc(F)cc(c23)N[C@@H]1c1ccc(F)cc1,"viability, T/C",compound alone 0.00316 µM,"103, 57.2, 94.7, 120%"
same,"viability, T/C",compound alone 0.1 µM,"95.3, 72, 87.4, 116%"
COc1c(OCCCN2CCOCC2)ccc2c3n(c(=NC(=O)c4cnc(N)nc4)nc12)CCN3,"viability, T/C",compound alone 0.00316 µM,"77.7, 86.8, 88.7, 80.4, 81.3, 93.6, 92.5, 103%"
CC(C)n1nc(-c2ccc3oc(N)nc3c2)c2c(N)ncnc21,"viability, T/C",compound alone 0.01 µM,"113, 105, 87.5, 93.1%"
Cn1ncc(Cl)c1-c1cc(C(=O)NC(CN)Cc2cccc(F)c2)sc1Cl (stereo not drawn),"viability, T/C",compound alone 0.1 µM,"71.4, 93.4, 94.9, 98%"
C#Cc1c(F)ccc2cc(O)cc(-c3ncc4c(N5CC6CCC(C5)N6)nc(OCC56CCCN5CC(F)C6)nc4c3F)c12 (stereo not drawn),"viability, T/C",compound alone 0.0316 µM,"86.7, 89.7, 108, 112%"
same,"viability, T/C",compound alone 0.316 µM,"80.2, 101, 87.4, 107%"
same,"viability, T/C",compound alone 1 µM,"93, 96.2, 112, 119%"
Cc1nc(NC(=O)N2CCCC2C(N)=O)sc1-c1ccnc(C(C)(C)C(F)(F)F)c1 (stereo not drawn),"viability, T/C",compound alone 0.316 µM,"97.7, 103, 107, 98.2, 112, 85.7, 76.3, 97.1%"
Cn1nccc1Nc1nccc(-c2ccn(C(CO)c3ccc(Cl)c(F)c3)c(=O)c2)n1 (stereo not drawn),"viability, T/C",compound alone 1 µM,"121, 105, 101, 87%"
CC(=O)c1c(C)c2cnc(Nc3ccc(N4CCNCC4)cn3)nc2n(C2CCCC2)c1=O,"viability, T/C",compound alone 0.00316 µM,"76.7, 82.3, 89.2, 104%"
same,"viability, T/C",compound alone 0.01 µM,"76.4, 103, 72.7, 104%"
C=CC(=O)N1CCN(c2nc(=O)n(-c3c(C)ccnc3C(C)C)c3nc(-c4c(O)cccc4F)c(F)cc23)C(C)C1 (stereo not drawn),"viability, T/C",compound alone 0.316 µM,"95.3, 98, 79.8, 108%"
same,"viability, T/C",compound alone 3.16 µM,"98.4, 88, 99.4, 124%"
same,"viability, T/C",compound alone 10 µM,"104, 85.7, 108, 133%"
CCCS(=O)(=O)Nc1ccc(F)c(C(=O)c2c[nH]c3ncc(-c4ccc(Cl)cc4)cc23)c1F,"viability, T/C",compound alone 3.16 µM,"97.9, 73.6, 100, 85.5%"
Cn1cnc2c(F)c(Nc3ccc(Br)cc3Cl)c(C(=O)NOCCO)cc21,"viability, T/C",compound alone 0.03 µM,"99.5, 105, 77.8, 99%"
C[C@@H](NC(=O)c1ncnc(N)c1Cl)c1ncc(C(=O)Nc2cc(C(F)(F)F)c(Cl)cn2)s1,"viability, T/C",compound alone 0.1 µM,"105, 97.5, 78.8, 76.6%"
same,"viability, T/C",compound alone 1 µM,"83.2, 107, 111, 97.1%"
CC(Nc1ccc2c(c1)OCCn1cc(N3C(=O)OCC3C(F)F)nc1-2)C(N)=O (stereo not drawn),"viability, T/C",compound alone 0.01 µM,"93.2, 98.5, 74.1, 101, 98.9, 99.7, 91.1, 87.1%"
same,"viability, T/C",compound alone 0.1 µM,"98, 103, 67.4, 92.9, 93.2, 95.6, 99.8, 90.1%"
